Results taken from the supplement of paper PMC11417369.
± gives the standard deviation of the averaged measurements. The list shows a part of the results.

The sequences below were run on PfAP2-EXP AP2 domain (GST-tagged) (assay: gcPBM binding intensity (ln(normalized median fluorescence intensity)); higher = stronger DNA binding).
In short: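 Plasmodium falciparum DNA-binding domains carrying a GST tag were expressed in E. coli and applied for 1 h, at about 25 μg on average, to an Agilent 4 × 180k array. The array held primer-extended double-stranded 36-bp intergenic genomic probes together with negative controls, and binding took place in 1× PBS with 1% milk, 0.2 mg/ml BSA, 0.5% salmon testes DNA and 0.03% Triton X-100. An Alexa488 anti-GST antibody detected bound protein, and the array was scanned at 488 nm. Binding intensity is taken as the highest Masliner-normalised natural-log median intensity across replicate spots of either probe orientation.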

| Sequence | gcPBM binding intensity (ln) |
| --- | --- |
| CATACATACAGACACACACACATATAAATACATACA [CACACA_site6533] | 8.73 ± 0.44 |
| ATTTTCAAATTCTATGCATGTGTATATTATAGATAA [TGCATGCA_site1003] | 8.77 ± 0.45 |
| TTAACAAAACTTTTAACACACAAAAAAAAAAAAAAA [CACACA_site6947] | 8.19 ± 0.44 |
| CTATAATAATAAAGTGAACACACACCGATAATATAT [CACACA_site9377] | 8.72 ± 0.57 |
| AATTAAATTACTTATACACACATAAAATGCCTGTAT [CACACA_site6597] | 8.37 ± 0.31 |
| GTAAGTTGTGCATTCACACACATATAAATATAAATA [CACACA_site7536] | 8.66 ± 0.24 |
| CATTATGTTGTAAATGCACACATACAAATACATATA [CACACA_site8380] | 8.59 ± 0.3 |
| TTATGATATATTTGTTGTACGCTTTTTTTATGAACT [XGTACX_site573] | 8.99 ± 0.43 |
| AACACATACATATATACACACACAAAATAATAAAAT [CACACA_site8724] | 8.72 ± 0.62 |
| ATGACCCACTTTTCTGCACACATAAAAAATATATAA [CACACA_site8092] | 8.83 ± 0.35 |
| TTTTTTCTATTGAGCACACATATCACGATTAGTACT [CACACA_site313] | 8.59 ± 0.3 |
| ATATATATTATTTCTACACACATATATATAATATGT [CACACA_site3374] | 8.66 ± 0.42 |
| GCTCAATTTTTGGGTACACACAAATGTATAATAATA [CACACA_site2388] | 8.58 ± 0.21 |
| TTCTTTTTTCAACACACACACACAAGAAAATATATA [CACACA_site9019] | 8.97 ± 0.47 |
| CAAAGAGAAATAAACACACACAAAATAAAGAAAAAA [CACACA_site2245] | 8.77 ± 0.59 |
| AAAAAAAAAAAAAAAACACACATATAGATTTATATA [CACACA_site7196] | 8.4 ± 0.17 |
| TGAACAGACAAATACACACACTCAAAAAAAAAAAAG [CACACA_site7287] | 8.47 ± 0.53 |
| GCACTCGTAAAAAGCACACATATAAAAACATTTATA [CACACA_site322] | 8.45 ± 0.35 |
| CAATGCTTTATCAATACATGCATATATATAGAAATA [TGCATGCA_site857] | 8.68 ± 0.25 |

| Sequence | gcPBM binding intensity (ln) |
| --- | --- |
| TATAATAATTCTTTGAGTACTTAAACATGTGAAATT [XGTACX_site955] | 8.51 ± 0.45 |
| GCGAGATGCTAAAATGCATGTTGGGCATTAGTTAAA [TGCATGCA_site586] | 8.7 ± 0.43 |
| TATCATTTCTAAAAAGGTACACATACATCATATATT [XGTACX_site3386] | 8.91 ± 0.28 |
| ATATTAATATATGTGGCACACATGTGGAGTCCTATT [CACACA_site213] | 8.96 ± 0.45 |
| AAAAAAATGAAGAAATGTACAAATTTCATTAATTTT [XGTACX_site354] | 8.29 ± 0.43 |
| GTGTAGTAAAATCGATGTACGTACAAATCAATTATT [XGTACX_site7662] | 8.69 ± 0.29 |
| TATATATGTAAATGCACACATATGTGGATATACTTA [CACACA_site1699] | 8.78 ± 0.099 |
| TTATATGTTTTACAACGTACACAAAAAAAACTTATA [XGTACX_site4413] | 8.34 ± 0.13 |
| CATTTTTACCGGTACTGTACATAAAAAAAAAAAAAG [XGTACX_site1548] | 8.88 ± 0.46 |
| TAAAAAAAAAGAAGGGGTACATGGATAATATATAAA [XGTACX_site8386] | 8.9 ± 0.5 |
| TATATAATATTTTTCACACACCATTTCCTTAAACAC [CACACA_site4862] | 8.66 ± 0.45 |
| GCAGGCTAAAAAATTACACACGAAAAAAATGAATTT [CACACA_site3417] | 8.44 ± 0.45 |
| CATATATGGTTATATACATGCACCATTATATTATTA [TGCATGCA_site520] | 8.71 ± 0.099 |
| TGTATAACCTGTGTTACACACATTATGATTTATATA [CACACA_site525] | 8.48 ± 0.21 |
| TGATAAAGTAAATATACATGCGATTAGTTATATATA [TGCATGCA_site720] | 8.55 ± 0.39 |
| TAATTAATAATAATATGTACATATTAATATATTATT [XGTACX_site6900] | 8.29 ± 0.24 |
| TTTTATATATATATCACACACACACCCATGTTTTAA [CACACA_site79] | 8.71 ± 0.54 |
| TTTATTCTCAAACACACACACATATATATATATATA [CACACA_site2895] | 10.2 ± 0.51 |
| TATAAAAAAAAAAAAAGTACTAACTTAAAACAATTT [XGTACX_site7969] | 8.35 ± 0.35 |

| Sequence | gcPBM binding intensity (ln) |
| --- | --- |
| TTGATAATTATATAATGTACTCATTATAATATGATG [XGTACX_site7813] | 8.32 ± 0.16 |
| AGTTTGTCAATCAACACACACCTATTTATTATAGAT [CACACA_site7777] | 8.37 ± 0.42 |
| TATTTATTCTCCAACACACACACATATATTTATATA [CACACA_site7376] | 8.69 ± 0.53 |
| AAAAATGAGTGACACACACACATATAAATATAAATA [CACACA_site7115] | 8.39 ± 0.49 |
| AAATCAAACTTTGGTGTGCACAAATATATACATATA [GTGCAC_site9986] | 9.1 ± 0.29 |
| TTTTTTTTACATTCTGCACACAATTTATTTTTTTTT [CACACA_site36] | 8.88 ± 0.38 |
| ACATATAAATATTGTGTGCACACACATAATATATAT | 8.68 ± 0.16 |
| GTAATTTTAAAGAAAAGTACACATTTATTAATTATT [XGTACX_site4468] | 8.21 ± 0.3 |
| TTGCATTTATTATACACACACAAAAAAATATATATA [CACACA_site238] | 8.72 ± 0.3 |
| AAAAATTATAACTAAAAAAATCACACAAAATATTTT [TGCATGCA_negctrl_site28] | 8.38 ± 0.37 |
| GTGTTAAATGTTTACACACAAACTTGCAATAATTAT [CACACA_site3825] | 8.62 ± 0.44 |
| TATGTATTTAAGTTACCTGAACGTTCAGGTAAAATT [CACACA_negctrl_site1393] | 8.55 ± 0.49 |
| ATAAATATTTACAAAAGTACACATAACTTTAGATAT [XGTACX_site1685] | 8.45 ± 0.54 |
| TAAACATAATATTTAACACACATGAAGATGTATATT [CACACA_site1036] | 8.21 ± 0.4 |
| ACAATCCACAGGGGCGCACACATATAAGCAGTATAT [CACACA_site3817] | 8.83 ± 0.67 |
| GTTTTGGCTAACTATTCACACATTAAAATATTACCA [CACACA_site5016] | 8.6 ± 0.28 |
| CACCATGATACATACACACAGACATATACGCATTCA [CACACA_site1008] | 8.61 ± 0.39 |
| TTTGTTGTTTGGAGATGTACATATTTTACACTTTTT [XGTACX_site5965] | 8.77 ± 0.33 |
| AAAAAATTAATAAAAACACACAAAAAAAATAAACAA [CACACA_site1907] | 8.62 ± 0.48 |
